Experimental data taken from PMC4336329 (PLoS ONE, 2015).
Among all 310,000 compounds or so, about 14,000 (4.5%) showed an effect of 50% or more. The effect is printed as a negative number. The list shows a part of the results.

Each compound was assayed against human ether-à-go-go-related gene (hERG) potassium channel (human, UniProt Q12809) (assay: primary screen, population patch clamp on CHO cells stably expressing hERG).
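Also: peak tail current of the secondary pulse compared with the same well before compound.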

human ether-à-go-go-related gene (hERG) potassium channel, sequence (Q12809 whole entry, looked up): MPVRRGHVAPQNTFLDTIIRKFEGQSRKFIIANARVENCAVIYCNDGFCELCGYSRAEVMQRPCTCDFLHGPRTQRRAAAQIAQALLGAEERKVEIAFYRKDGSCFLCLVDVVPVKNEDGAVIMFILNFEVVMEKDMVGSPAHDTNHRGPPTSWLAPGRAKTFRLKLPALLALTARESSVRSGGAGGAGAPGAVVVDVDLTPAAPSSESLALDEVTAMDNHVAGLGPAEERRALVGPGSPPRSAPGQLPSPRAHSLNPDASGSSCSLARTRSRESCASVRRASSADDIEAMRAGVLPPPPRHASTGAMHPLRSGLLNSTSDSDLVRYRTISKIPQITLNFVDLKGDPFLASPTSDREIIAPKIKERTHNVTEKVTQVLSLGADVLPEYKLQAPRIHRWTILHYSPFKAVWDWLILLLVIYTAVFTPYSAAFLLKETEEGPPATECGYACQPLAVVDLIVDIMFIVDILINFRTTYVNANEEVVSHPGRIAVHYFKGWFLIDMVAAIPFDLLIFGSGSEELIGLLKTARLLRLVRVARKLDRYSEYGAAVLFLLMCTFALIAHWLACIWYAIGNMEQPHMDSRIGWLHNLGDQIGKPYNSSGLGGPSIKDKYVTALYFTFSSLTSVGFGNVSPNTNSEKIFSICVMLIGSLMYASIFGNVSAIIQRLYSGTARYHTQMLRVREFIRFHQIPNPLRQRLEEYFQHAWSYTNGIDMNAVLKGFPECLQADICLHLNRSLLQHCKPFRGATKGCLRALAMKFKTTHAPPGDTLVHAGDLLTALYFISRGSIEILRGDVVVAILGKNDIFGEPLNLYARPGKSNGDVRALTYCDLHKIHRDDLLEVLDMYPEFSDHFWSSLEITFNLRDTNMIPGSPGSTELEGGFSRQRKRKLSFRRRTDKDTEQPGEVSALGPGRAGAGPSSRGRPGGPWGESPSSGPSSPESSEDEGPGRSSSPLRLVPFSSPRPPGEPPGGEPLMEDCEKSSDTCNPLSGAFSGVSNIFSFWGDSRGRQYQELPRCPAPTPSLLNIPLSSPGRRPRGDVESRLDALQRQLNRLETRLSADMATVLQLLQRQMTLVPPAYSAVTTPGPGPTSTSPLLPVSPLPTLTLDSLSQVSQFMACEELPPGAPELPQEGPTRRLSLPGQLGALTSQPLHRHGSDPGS

Q: With `Cc1ccccc1CN1C2=NCCN2c2ccccc21.Cl` as the compound, how does the “hERG current change (%, negative = inhibition) at 10uM” value read?
A: -53.7%

Q: For `COc1cc(/C=C(/C#N)C(=O)Nc2ccccc2)c(Br)cc1OCc1ccc(C(=O)O)cc1`, which “hERG current change (%, negative = inhibition) at 10uM” value is on record?
A: 9.98%

Q: `CCOc1ccc(C(=O)NCC(=O)OCC(=O)Nc2nnc(-c3ccccc3)o2)cc1` was tested. Which “hERG current change (%, negative = inhibition) at 10uM” value did it give?
A: -9.51%

Q: Which “hERG current change (%, negative = inhibition) at 10uM” value does the source give for `COc1ccccc1Oc1ccnc2cc(Cl)ccc12` here?
A: -8.96%

Q: `COc1ccc(NC(=O)Nc2ccc(F)c(F)c2)c(OC)c1` was tested. Which “hERG current change (%, negative = inhibition) at 10uM” value did it give?
A: 23.4%

Q: With `CC1=C(C(=O)Nc2cc(C(=O)N3CCC(C)CC3)ccc2C)SCCO1` as the compound, how does the “hERG current change (%, negative = inhibition) at 10uM” value read?
A: 9.92%

Q: How did the “hERG current change (%, negative = inhibition) at 10uM” value turn out when `COc1ccc(NS(=O)(=O)c2cccc(C(=O)OCC(=O)N3CCN(c4ccc(OC)cc4)CC3)c2)cc1` was run?
A: -10.1%

Q: With `COc1ccccc1CNC(=O)c1cccs1` as the compound, how does the “hERG current change (%, negative = inhibition) at 10uM” value read?
A: 3.82%

Q: `Cc1ccc(CCC(=O)Nc2ccc([N+](=O)[O-])cc2Cl)o1` was tested. Which “hERG current change (%, negative = inhibition) at 10uM” value did it give?
A: -4.02%

Q: With `Cc1ccc(NC(=O)CCC(=O)N/N=C/c2ccc(O)cc2)cc1` as the compound, how does the “hERG current change (%, negative = inhibition) at 10uM” value read?
A: 17.3%

Q: For `Cc1csc2ncc(C(=O)Nc3ccon3)c(=O)n12`, which “hERG current change (%, negative = inhibition) at 10uM” value is on record?
A: 7.44%

Q: With `COC(=O)CNc1nc(Cl)nc(Nc2ccc(C)cc2)n1` as the compound, how does the “hERG current change (%, negative = inhibition) at 10uM” value read?
A: 18.3%

Q: Which “hERG current change (%, negative = inhibition) at 10uM” value does the source give for `COc1ccc(CC2(C)OC(c3ccc(Cl)cc3)=NN2C(C)=O)cc1` (stereo not shown) here?
A: -1.94%

Q: With `CCc1nccn1CCC(=O)NC1CC(C)(C)Cc2c1cnn2-c1ccc(OC)cc1` (stereo not shown) as the compound, how does the “hERG current change (%, negative = inhibition) at 10uM” value read?
A: -16.2%

Q: Which “hERG current change (%, negative = inhibition) at 10uM” value does the source give for `COc1cc(CNc2ncc(-c3ccc(Br)cc3)n2C)cc(OC)c1OC.O=C(O)C(=O)O` here?
A: -49.9%

Q: Which “hERG current change (%, negative = inhibition) at 10uM” value does the source give for `COCC(=O)N(CCc1ccc(OC)cc1)Cc1nc2ccccc2c(=O)[nH]1` here?
A: -2.83%

Q: With `COc1ccc2nc(SCC(=O)C(C)(C)C)[nH]c2c1` as the compound, how does the “hERG current change (%, negative = inhibition) at 10uM” value read?
A: -0.0981%

Q: How did the “hERG current change (%, negative = inhibition) at 10uM” value turn out when `CC(Sc1nnnn1-c1ccc(O)cc1)c1nc2ccccc2c(=O)[nH]1` (stereo not shown) was run?
A: -13.4%

Q: For `Cc1cc(/C=N/n2cnnc2)c(C)n1-c1ccc(C(=O)O)cc1`, which “hERG current change (%, negative = inhibition) at 10uM” value is on record?
A: -1.93%

Q: With `Cc1cc(OCC(=O)Nc2ccc(N3CCN(C(=O)c4ccco4)CC3)cc2)cc(C)c1Cl` as the compound, how does the “hERG current change (%, negative = inhibition) at 10uM” value read?
A: 2.99%

Q: Which “hERG current change (%, negative = inhibition) at 10uM” value does the source give for `COc1cc(OC)c(C(=O)OCC(=O)Nc2ccccc2Cl)cc1OC` here?
A: 14.3%

Q: Which “hERG current change (%, negative = inhibition) at 10uM” value does the source give for `CSc1nsc(/C=C/Nc2ccc(F)cc2F)c1C#N` here?
A: 9.53%

Q: `O=C(/C=C/c1ccccc1)NC(NC(=S)Nc1cc(Cl)ccc1Cl)C(Cl)(Cl)Cl` (stereo not shown) was tested. Which “hERG current change (%, negative = inhibition) at 10uM” value did it give?
A: 15.1%

Q: With `O=C(c1cc(-c2ccncc2)nc2c(Cl)cccc12)N1CCN(c2ccccc2F)CC1` as the compound, how does the “hERG current change (%, negative = inhibition) at 10uM” value read?
A: -46.3%

Q: `COc1ccc(C(=O)COC(=O)CCC(=O)c2cccs2)cc1` was tested. Which “hERG current change (%, negative = inhibition) at 10uM” value did it give?
A: -34.4%

Q: Which “hERG current change (%, negative = inhibition) at 10uM” value does the source give for `N#CC1=C(N)OC2=C(C(=O)CCC2)C1Cc1ccccc1` (stereo not shown) here?
A: 0.947%

Q: `COc1ccc2nc(C)cc(SCC(=O)NNC(=O)COc3ccc(C)cc3)c2c1` was tested. Which “hERG current change (%, negative = inhibition) at 10uM” value did it give?
A: 16.2%

Q: With `O=C1c2cccnc2C(O)N1Cc1cccs1` (stereo not shown) as the compound, how does the “hERG current change (%, negative = inhibition) at 10uM” value read?
A: -4.79%

Q: `Cc1cc(C)cc(N(C(=O)Cn2nnc3ccccc32)C(C(=O)NCc2ccco2)c2ccncc2)c1` (stereo not shown) was tested. Which “hERG current change (%, negative = inhibition) at 10uM” value did it give?
A: -6.94%

Q: Which “hERG current change (%, negative = inhibition) at 10uM” value does the source give for `O=C(CSc1ncn[nH]1)Nc1nc(-c2cccc([N+](=O)[O-])c2)cs1` here?
A: -13.8%

Q: With `C/C(=N\N1CCN(Cc2ccc(Cl)cc2)CC1)c1ccc([N+](=O)[O-])cc1` as the compound, how does the “hERG current change (%, negative = inhibition) at 10uM” value read?
A: -72.6%

Q: For `CCCN1C(=O)SC(CC(=O)Nc2ccc(Br)cc2)C1=O` (stereo not shown), which “hERG current change (%, negative = inhibition) at 10uM” value is on record?
A: 2.86%

Q: For `O=C(CN(C(=O)c1csnn1)c1ccccc1F)NCc1ccccc1`, which “hERG current change (%, negative = inhibition) at 10uM” value is on record?
A: -2.58%

Q: Which “hERG current change (%, negative = inhibition) at 10uM” value does the source give for `CC(=O)Nc1ccc(S(=O)(=O)N2CCC3(CC2)CC(=O)c2ccccc2O3)cc1` here?
A: -36.6%

Q: How did the “hERG current change (%, negative = inhibition) at 10uM” value turn out when `COc1ccc(OCCN(C)C(=O)c2cccc(S(=O)(=O)N(C)c3ccccc3)c2)cc1` was run?
A: -48.5%

Q: With `COc1ccccc1CNC(=O)C(CCSC)NC(=O)C1CCC(C)CC1` (stereo not shown) as the compound, how does the “hERG current change (%, negative = inhibition) at 10uM” value read?
A: 3.2%

Q: Which “hERG current change (%, negative = inhibition) at 10uM” value does the source give for `COc1ccccc1OCC(=O)NNC(=O)c1cccs1` here?
A: 19.8%

Q: With `Cc1cccc(N(C(=O)c2snc(C(N)=O)c2N)C(C(=O)NCc2ccccc2)c2ccncc2)c1` (stereo not shown) as the compound, how does the “hERG current change (%, negative = inhibition) at 10uM” value read?
A: 12%

Q: How did the “hERG current change (%, negative = inhibition) at 10uM” value turn out when `Cc1ccccc1NC(=O)c1cc([N+](=O)[O-])ccc1NCCN1C(=O)CCC1=O` was run?
A: -4.71%

Q: For `CCOc1ccccc1NC(=S)NC(=O)C1CC1`, which “hERG current change (%, negative = inhibition) at 10uM” value is on record?
A: 15.9%

Q: With `O=C(Nc1ccc(F)cc1)N(Cc1cccs1)Cc1cc2cc3c(cc2[nH]c1=O)OCO3` as the compound, how does the “hERG current change (%, negative = inhibition) at 10uM” value read?
A: 15.1%

Q: `O=C(c1ccc(N2CCOCC2)cc1[N+](=O)[O-])N1CCOCC1` was tested. Which “hERG current change (%, negative = inhibition) at 10uM” value did it give?
A: 2.97%

Q: `CCSc1nc2ccccc2c(=O)n1OCC(=O)OC` was tested. Which “hERG current change (%, negative = inhibition) at 10uM” value did it give?
A: 6.32%
